# Measured values as given in ChEMBL document CHEMBL4888484, “Replenishing the malaria drug discovery pipeline: Screening and hit evaluation of the MMV Hit Generation Library 1 (HGL1) against asexual blood stage Plasmodium falciparum ,using a nano luciferase reporter read-out” (2022).
# In all, about 150,000 compounds went through this assay and about 540 (0.36%) showed an effect of 50% or more. Some of the results follow.
# Tested on: Plasmodium falciparum
# Test: Primary screen in NF54 nanoGlo assay, in single point, at 2uM, 72h; a lower Z score goes with more inhibition
# Assay type: functional, Erythrocyte
# Conditions: timepoint 72 hour
Structure (SMILES),% Inhibition [%],Z score
Cc1cn2nc(C(=O)N3CCN(C(=O)c4ccco4)CC3)cc2c(N2CCCC2)n1,5,-0.7
CN(C)C1(CNCc2[nH]c3ccccc3c2Cl)CCCCC1,-1,0.08
CCNC(=O)[C@@H]1CCCN1C(=O)c1cccc(NS(=O)(=O)c2ccc(C)cc2C)c1,18,-2.14
CCNc1cc(CNc2ncc(F)cn2)ccn1,10,-1.19
NC(=O)[C@H]1CCCN(CCNc2ncnc3c2Cc2ccccc2OC3)C1,-8,1.62
Cc1cc(Br)cc(C(=O)N(C)C[C@H](O)C(F)(F)F)c1,-3,0.31
c1cnc(NCc2nc3c([nH]2)CCCC3)cn1,-8,1.52
C[C@H](O)c1cnc(CNC2(c3cccc(Cl)c3)CCCC2)s1,13,-1.7
O=C1C[C@H](N2CCC3(CC2)OCCO3)C(=O)N1c1ccc(Cl)cc1,-6,0.84
O=C1OC[C@@H]2CCNCc3ccc(F)cc3N12,-10,1.56
COC(c1nc(-c2cc(Br)c3ccccc3c2)no1)C1CCOC1 (stereo not given),-6,1.15
O=C(NCC1(c2ccccc2)CC1)N[C@H](c1nccs1)C1CC1,-6,0.67
CCc1nnc2n1CCN(C(=O)c1cc3ccccc3o1)C2,9,-1.52
Cc1ccccc1N1C[C@@H](c2nc(C(C)C)no2)CC1=O,-7,0.84
Cc1nc(C(=O)N2CCC(c3nc4c(s3)CCC4)CC2)no1,-1,0.25
O=C(CCN1CCN(Cc2ccccc2)C(=O)C1=O)NCc1ccc2c(c1)OCO2,-9,1.21
Cc1cccnc1NC(=O)C1CCCN(CC(O)c2ccc(F)c(F)c2)C1 (stereo not given),-12,1.25
CCc1ccc(CN2CCC([C@]3(Cc4cccc(OC)c4)NC(=O)N(C)C3=O)CC2)o1,-12,1.61
Cc1ccc(NC(=O)Nc2ccc(-c3nc(-c4cc(C)ccc4C)co3)cc2)cc1,-9,1.09
Cc1cc(S(=O)(=O)NCC2(N)CCCCC2)c(C)s1,-11,1.12
O=C([C@@H]1COc2ccccc21)N1CCC(OCc2ccc(F)cc2)CC1,6,-0.8
COc1ccc(OCc2nc(C(=O)N3CC[C@H]3c3cccs3)co2)cc1,-16,2.08

Structure (SMILES),% Inhibition [%],Z score
Cc1ccsc1CN(C)Cc1ccccc1-c1nnn[nH]1,-13,2.6
Nc1ncnc2[nH]nc(-c3ccc(Oc4ccccc4)cc3)c12,14,-1.33
CC1CN(C(=O)c2cc(F)cc3c(=O)c4cc(F)ccc4[nH]c23)CC(C)O1 (stereo not given),-10,1.65
CCC1=NO[C@@H](CNC(=O)c2cccc(-c3nccn3C(C)C)c2)C1,-12,1.15
Cc1ccc2nc3c(cc2c1)CCN3C(=O)C(C)C,-10,1.11
CC(C)COC1CCN(C(=O)C(=O)Nc2nccs2)CC1,-2,0.21
CN(C)C(=O)C1C[C@@H]2OCC[C@@H]2N1C(=O)COC1CCCC1 (stereo not given in full),7,-1.03
N#Cc1ccc(NCc2ccc(Cn3cccn3)cc2)nc1,-10,0.98
c1cc2c(cc1-c1nnc(C3CC3)o1)OCO2,-20,2.88
Cc1cc(C)nc(N(C)Cc2nncn2C(C)C)n1,0,0.03
O=S(=O)(CC1CCOC1)N1CCCC1Cn1ccnc1 (stereo not given),-2,0.21
COCCS(=O)(=O)NC(=O)C1CC1C1CCCCC1 (stereo not given),1,-0.1
CCOc1ccc(-[n+]2cc(-c3ccccc3)n3c2CCC3)cc1,68,-6.48
CC(c1ccc(Cl)cc1Cl)N(C)C(=O)C1CCNC1 (stereo not given),-10,1.93
Cc1nnc2ccc(N3CCNC(=O)[C@@H]3C)nn12,-4,0.4
Cc1cc(S(=O)(=O)Nc2cccc(CN3CCOCC3)n2)c(C)s1,-8,0.82
COc1cc(NC(=O)N[C@H]2CCO[C@@H]2c2nccn2C)cc(Cl)c1OC,-4,0.59
Cc1cccnc1N1CCC(c2nccn2CCCN(C)C)CC1,-6,1.09
O=S(=O)(NC(c1ccccn1)[C@H]1C[C@H](O)C1)N1CCCC1 (stereo not given in full),-6,1.14
COc1cc(C(=O)n2ccc(-c3ccc4c(c3)OCO4)n2)cc(OC)c1OC,0,0.04
O=C(NC1CC1)[C@@H]1C[C@@H]2OCC[C@@H]2N1C(=O)c1ccc(-c2ccccc2F)o1,-1,0.18
O=C(Nc1cc(Cl)cc(Cl)c1)[C@H](CC1CCCCC1)N1CCS(=O)(=O)CC1,-3,0.41

Structure (SMILES),% Inhibition [%],Z score
Cc1nc(C(=O)NCC2CCCC2O)no1 (stereo not given),-7,0.95
Cc1ccc(C)c(S(=O)(=O)N2CCC[C@H](N3CCNCC3=O)C2)c1,-6,0.86
Cc1nc([C@H](C)NC(=O)c2c(C)[nH]c3c2C(=O)CCC3)c(C)s1,-16,3.01
CCn1nc(-c2cc(C)ccc2C)nc1N(C)C,-9,1.39
CCOC(=O)c1cc(CNCCc2nc3ccccc3[nH]2)on1,-2,0.42
C[C@H]1CN(C(=O)c2cccc(S(=O)(=O)N3CCCCCCC3)c2)CCN1,5,-0.8
CC(C)[C@H](Cc1ccc(F)cc1)NC(=O)c1c[nH]nn1,1,-0.14
CCc1nc(C)c(NS(=O)(=O)c2ccc(C)c(C(=O)O)c2C)s1,-6,1.05
CC[C@H](NC(=O)Nc1nc(C)n(C)n1)c1ccccc1OC(F)F,8,-1.41
O=C(CN1CCN(S(=O)(=O)c2ccc(Br)cc2)CC1)NC1CCCCCC1,-8,0.99
COC(=O)c1cc(NC(=O)N2CCO[C@H](C(=O)OC)C2)c(F)cc1F,32,-4.13
Cc1nc(CS(=O)(=O)Cc2csc(COc3ccc(Cl)cc3)n2)no1,-13,1.68
Cc1cc(-c2nc(C(C)(C)C3=CCCCC3)no2)n[nH]1,-4,0.6
CNC(=O)c1cc2c(s1)CCN(C(=O)[C@@H]1CN(C)c3ccccc3O1)C2,14,-1.99
Cc1cc(CNC(=O)c2csc(=O)[nH]2)n(C)n1,39,-1.31
CC(C)C1CC(CC(=O)NCC2CS(=O)(=O)CCO2)CCO1 (stereo not given),-2,0.31
Cc1oc(-c2ccc(F)cc2)nc1CN1CC(=O)N(C)c2ccccc2C1=O,-15,1.89
COc1nc2ccc(C)cc2cc1-c1noc(-c2cccnc2)n1,-3,0.32
C=CCC1(O)CN(Cc2nnn(-c3ccccc3)c2C2CC2)C1,-1,0.2
COc1ccc(C(=O)NC2(c3ccccc3)CCOCC2)cc1,-5,0.85
CC[C@@H](COC)NC(=O)Nc1cc(C)nn1CC(C)C,8,-1.53
Cc1ccc2[nH]cc(-c3nc(N(C)C)ns3)c2c1,6,-1.16

Structure (SMILES),% Inhibition [%],Z score
O=C1C[C@@H](C(=O)NCc2ccccc2)N=C(N2CCCCC2)N1,-5,0.61
CC(C)(C)CC(=O)N1CCN(Cc2ccncc2)[C@@H]2CS(=O)(=O)C[C@@H]21,-1,0.19
CN1C(=O)N([C@H]2CCc3cc(Cl)ccc32)C(=O)C1(C)C,1,-0.07
CC1(C)CN(C(=O)Nc2ccc(C(F)(F)F)cc2Cl)CCS1(=O)=O,5,-0.64
CCc1nnc2n1CC(NC(C)C(=O)Nc1ccc(Cl)cn1)CC2 (stereo not given),0,-0.01
CC(C)c1cnc(CN2C(=O)N[C@]3(CCN(C(=O)OC(C)(C)C)C3)C2=O)o1,2,-0.18
Cc1cc(Nc2ccc(Cl)cn2)ncn1,-5,0.54
CC(C)OC[C@@H](O)CN1CCN(c2ccc(NC(=O)Cc3cccs3)cn2)CC1,-2,0.31
COc1cccc(CNC(=O)[C@@H]2C[C@@H](O)CN2C2CCN(C(=O)CCn3nc(C)cc3C)CC2)c1,9,-1.15
O=C(Cc1c(F)cccc1F)N1CCO[C@H](c2ncon2)C1,-3,0.42
Cc1cc(C)c(-n2cccn2)c(CN2CCC[C@H]2c2ccc(C(N)=O)s2)c1,-10,1.55
CN(Cc1ccc(Br)c(F)c1)C1CC[S+]([O-])CC1 (stereo not given),3,-0.52
NC(=O)Cc1noc(CCN2C(=O)c3ccccc3C2=O)n1,-9,1.25
COc1ccc(C(C)(C)c2nc(CO)no2)cc1,11,-1.46
CCOc1ccc([C@H](CC)NCc2nc(C)c[nH]2)cc1,-22,2.24
O=C(CCc1cccs1)Nc1cccc(C#Cc2ccccn2)c1,1,-0.21
CN(C(=O)c1ccco1)c1ccccc1-c1nc(-c2ccc(Br)o2)no1,-3,0.48
O=C1C2ON(c3ccccc3)C(c3ccc(F)c(Br)c3)C2C(=O)N1c1cccc2ccccc12 (stereo not given),-14,2.04
O=C(c1nc2ccccn2c1-c1ccc(F)cc1)N1CCCCCC1,-2,0.33
